Some of the results follow. Single values are uncertain, as repeats are few or missing.
Experiments:
Assay in all cases: proliferation Z-score within cell line (SRB, relative to all inhibitors screened on that line); triple-negative breast cancer lines and a kinase inhibitor library; SRB is the sulforhodamine B protein stain; higher = less growth inhibition (more resistant)
Conditions in all cases: concentration: 1 µM; 4 days
Bt20 = tested on: Bt20
Bt549 = tested on: Bt549
HCC1143 = tested on: HCC1143
HCC1806 = tested on: HCC1806
HCC1937 = tested on: HCC1937
HCC38 = tested on: HCC38
HCC70 = tested on: HCC70
Hs578T = tested on: Hs578T
MDA-MB-231 = tested on: MDA-MB-231
MDA-MB-435s = tested on: MDA-MB-435s
MDA-MB-436 = tested on: MDA-MB-436
MDA-MB-453 = tested on: MDA-MB-453
MDA-MB-468 = tested on: MDA-MB-468
SKBR7 = tested on: SKBR7
SUM1315MO2 = tested on: SUM1315MO2
SUM149PT = tested on: SUM149PT
SUM159PT = tested on: SUM159PT
SUM185PE = tested on: SUM185PE
SUM229PE = tested on: SUM229PE
SUM52PE = tested on: SUM52PE
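Also: Single-dose primary screen of a 378-member kinase inhibitor library in 96-well plates, with growth read as absorbance of protein-bound SRB dye after TCA fixation.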

SMILES | proliferation Z-score within cell line (Bt20) | proliferation Z-score within cell line (Bt549) | proliferation Z-score within cell line (HCC1143) | proliferation Z-score within cell line (HCC1806) | proliferation Z-score within cell line (HCC1937) | proliferation Z-score within cell line (HCC38) | proliferation Z-score within cell line (HCC70) | proliferation Z-score within cell line (Hs578T) | proliferation Z-score within cell line (MDA-MB-231) | proliferation Z-score within cell line (MDA-MB-435s) | proliferation Z-score within cell line (MDA-MB-436) | proliferation Z-score within cell line (MDA-MB-453) | proliferation Z-score within cell line (MDA-MB-468) | proliferation Z-score within cell line (SKBR7) | proliferation Z-score within cell line (SUM1315MO2) | proliferation Z-score within cell line (SUM149PT) | proliferation Z-score within cell line (SUM159PT) | proliferation Z-score within cell line (SUM185PE) | proliferation Z-score within cell line (SUM229PE) | proliferation Z-score within cell line (SUM52PE)
CCc1cc(Nc2nccc(-c3c(-c4ccc(OC)c(C(=O)Nc5c(F)cccc5F)c4)nc4ccccn34)n2)c(OC)cc1N1CCC(N2CCN(S(C)(=O)=O)CC2)CC1 | 1.17 | 0.475 | 0.951 | 0.376 | 0.585 | 0.247 | 0.728 | 0.0691 | 0.739 | 1.04 | 0.84 | -0.668 | 0.904 | -0.596 | 1.07 | 0.956 | 0.565 | 1.26 | 1.02 | 1.23
CCCS(=O)(=O)Nc1ccc(F)c(C(=O)c2c[nH]c3ncc(Cl)cc23)c1F | -0.0385 | 1.03 | 1.1 | 1.45 | 0.907 | 0.717 | 0.94 | 0.848 | 0.589 | -1.78 | 1.26 | 0.923 | 0.509 | 0.895 | -0.122 | 0.515 | 0.674 | -0.15 | 1.4 | 0.00644
NC(=O)c1cnc(N[C@@H]2CCCC[C@@H]2N)nc1Nc1cccc(-n2nccn2)c1 | 0.944 | 0.62 | 0.684 | 0.937 | 0.618 | 0.523 | 0.48 | 0.465 | 0.46 | 0.579 | 0.345 | 0.655 | 0.934 | 0.828 | 0.463 | 0.726 | 0.396 | -0.377 | 0.573 | 0.0675
O=C(O)[C@]1(Cc2cccc(Nc3nccs3)n2)CC[C@@H](Oc2cccc(Cl)c2F)CC1 | -0.975 | -0.193 | -0.632 | -0.493 | 0.325 | -0.744 | -0.831 | -0.772 | -0.201 | -0.305 | -0.448 | -0.919 | -1.16 | -0.905 | -0.622 | -0.106 | -0.783 | 0.135 | -0.0321 | -0.654
Oc1cccc(-c2nc(N3CCOCC3)c3oc4ncccc4c3n2)c1 | 0.79 | -0.121 | -1.15 | 0.823 | -1.5 | 0.569 | 0.316 | 0.6 | -1.24 | -1.83 | -1.12 | 0.582 | 0.517 | 0.96 | -2.1 | 0.485 | 0.55 | -1.84 | -1.8 | -1.04
COc1cc2c(Nc3ccc(NC(=O)c4ccccc4)cc3)ncnc2cc1OCCCN1CCOCC1 | 0.526 | 0.279 | 0.939 | 0.714 | 0.602 | 0.491 | 0.859 | 0.581 | -0.388 | 0.389 | 0.3 | 0.592 | 0.218 | 1.13 | 0.691 | 0.653 | 0.529 | 0.437 | 0.226 | 0.548
O=C(Nc1c[nH]nc1-c1nc2ccc(CN3CCOCC3)cc2[nH]1)NC1CC1 | -1.11 | -2.09 | -0.994 | -0.885 | -1.19 | -3.61 | -1.43 | -0.732 | -1.03 | -0.677 | 0.0696 | -1.33 | -1.82 | -1.11 | -0.954 | 0.95 | 0.115 | -1.48 | 0.41 | -1.17
CCn1c2ccccc2c2cc(Nc3ccnc(NCCCN4CCOCC4)n3)ccc21 | 0.94 | 0.446 | 0.681 | 0.494 | 0.584 | 0.425 | 0.59 | 0.365 | 0.637 | 0.497 | 0.947 | 0.714 | 0.53 | 0.457 | 0.509 | 0.541 | 0.352 | 1.1 | 0.725 | 1.17
CNC(=O)c1cc(Oc2ccc(NC(=O)Nc3ccc(Cl)c(C(F)(F)F)c3)cc2)ccn1 [Sorafenib] | 0.76 | 0.7 | 1.01 | 1.66 | 0.537 | 0.501 | 0.626 | 0.451 | 0.409 | 0.541 | 0.835 | 0.803 | 0.719 | 0.128 | 0.0246 | 0.185 | 0.498 | -0.00153 | 1.7 | -0.977
N#CC(=C(/N)Sc1ccccc1N)/C(C#N)=C(\N)Sc1ccccc1N | 0.874 | 0.703 | -1.04 | 0.713 | 0.486 | 0.417 | 0.00419 | 0.502 | 0.545 | 0.507 | -0.0725 | 0.407 | 0.462 | 1.6 | 0.572 | 0.796 | 0.404 | 0.0111 | 0.387 | 0.931
O=C(NCCCNc1nc(Nc2cccc(NC(=O)N3CCCC3)c2)ncc1I)c1cccs1 | 0.0178 | 0.165 | -0.396 | 0.726 | -0.0694 | 0.38 | 0.708 | -0.0234 | -1.08 | -0.585 | 0.571 | 0.0699 | -1.26 | -0.541 | -0.874 | 0.181 | 0.567 | 0.0316 | 0.0967 | -0.359
CCc1cnn2c(NCc3ccc[n+]([O-])c3)cc(N3CCCC[C@H]3CCO)nc12 | -2.01 | -1.98 | -2.27 | -1.91 | -2.36 | -2.38 | -1.96 | -2.05 | -1.58 | -1.71 | -1.97 | -1.46 | -1.6 | -1.92 | -1.6 | -1.93 | -2.28 | -1.07 | -1.86 | -1.16
COc1ccc(-c2nc(N3CCOCC3)c3sc(CN(C)c4ncc(C(=O)NO)cn4)cc3n2)cn1 | -2.05 | -1.81 | -1.92 | -1.99 | -1.55 | -2.4 | -1.03 | -2.16 | -1.69 | -1.82 | -1.84 | -1.55 | -1.55 | -1.78 | -1.97 | -2.04 | -2.29 | -1.6 | -1.97 | -1.19
COc1cc2nccc(Oc3ccc(NC(=O)C4(C(=O)Nc5ccc(F)cc5)CC4)cc3)c2cc1OC | -0.0321 | 0.632 | 0.00637 | 0.886 | 0.396 | 0.486 | 0.835 | 0.352 | 0.623 | 0.424 | 0.347 | 0.725 | 0.171 | 0.79 | -0.41 | 0.698 | -0.297 | -0.407 | -0.148 | -1.29
CCn1c(N)c(C(=O)NC)c(=O)c2ccc(C#CC(C)(O)COC)nc21 (stereo not given) | 0.883 | 0.586 | 0.914 | 0.928 | 0.618 | 0.617 | 0.78 | 0.446 | 1.09 | 0.647 | 0.7 | 0.585 | 1.12 | 0.969 | 0.764 | 0.751 | 0.703 | 0.346 | 0.844 | 0.543
Cc1nc(NC(=O)N2CCC[C@H]2C(N)=O)sc1-c1ccnc(C(C)(C)C(F)(F)F)c1 | -0.258 | 0.542 | 0.0542 | -0.255 | 0.143 | 0.641 | 0.713 | 0.361 | 0.867 | 0.267 | 0.404 | -1.21 | 0.803 | 0.597 | 0.591 | 0.477 | -0.141 | -1.27 | -0.0757 | 0.664
O=C(NOCC1CC1)c1ccc(F)c(F)c1Nc1ccc(I)cc1Cl | 0.494 | 0.0898 | -0.182 | -0.459 | 0.135 | 0.354 | 0.573 | 0.213 | -1.69 | -2.01 | 0.723 | 0.846 | 0.728 | 0.48 | 0.893 | -1.03 | 0.615 | 0.63 | -1.69 | -0.629
CS(=O)(=O)N1CCN(Cc2cc3nc(-c4cccc5[nH]ncc45)nc(N4CCOCC4)c3s2)CC1 | -0.856 | 0.201 | -1.13 | -0.0256 | -0.556 | 0.535 | -1.05 | 0.422 | -0.202 | -0.455 | -0.45 | 0.542 | -0.292 | 0.597 | -0.98 | 0.229 | 0.399 | -1.64 | -0.539 | -1.07
COc1ccc(-c2ccc3c(N4CCOC[C@@H]4C)nc(N4CCOC[C@@H]4C)nc3n2)cc1CO | -2.4 | -2.92 | -0.5 | -1.98 | -2.28 | -2.85 | -2.11 | -3.09 | -1.91 | -2.12 | -2.5 | -2.09 | -1.67 | -2.51 | -1.74 | -1.84 | -1.68 | -1.9 | -2.22 | -1.46
Cc1nc(NC(=O)N2CCC[C@H]2C(N)=O)sc1-c1csc(C(C)(C)C)n1 | 0.187 | 0.592 | 0.265 | -0.435 | 0.57 | 0.666 | 0.746 | 0.558 | 0.815 | 0.565 | 0.879 | -0.643 | 1.13 | 0.518 | 0.852 | 1.03 | 0.245 | -0.936 | 0.472 | 1.13
CCC(=O)Nc1cccc(Oc2nc(Nc3ccc(N4CCN(C)CC4)cc3OC)ncc2Cl)c1 | 0.59 | 0.132 | 0.743 | 0.604 | 0.708 | 0.469 | 0.639 | 0.534 | 0.55 | 0.691 | 0.84 | 0.811 | 0.687 | 0.577 | 0.205 | 0.617 | 0.446 | 0.495 | 0.261 | 0.623
Cc1ccc2nc(NCCN)c3ncc(C)n3c2c1 | 0.55 | 0.126 | 0.426 | 0.624 | 0.588 | 0.32 | 0.453 | 0.43 | 0.721 | 0.673 | 0.243 | 0.561 | 0.726 | 0.601 | 0.848 | 0.734 | 0.212 | 1.06 | 0.947 | 0.867
C=CC(=O)Nc1cccc(Nc2nc(Nc3ccc(Oc4ccnc(C(=O)NC)c4)cc3)ncc2F)c1 | 0.563 | 0.0113 | 0.61 | 0.727 | 0.578 | 0.533 | 0.62 | 0.504 | 0.437 | 0.592 | 0.555 | 0.839 | 0.156 | 0.669 | -0.112 | 0.299 | 0.525 | -0.0124 | 0.184 | -0.0455

— the supplement of paper PMC6746778
